According to article PMC6570896:
These are yes or no findings as the source states them, for the method shown. Binding seen in cells or lysates may run through a third protein. Some entries that bind do so weakly or less than the wild type. For some of these results: Tags and fused reporters may be left off the sequences shown. One block for each binder: values may come before it.

Sequences of proteins named here, by UniProt entry; tags and fusion partners are left off.
UniProt Q9FXM3: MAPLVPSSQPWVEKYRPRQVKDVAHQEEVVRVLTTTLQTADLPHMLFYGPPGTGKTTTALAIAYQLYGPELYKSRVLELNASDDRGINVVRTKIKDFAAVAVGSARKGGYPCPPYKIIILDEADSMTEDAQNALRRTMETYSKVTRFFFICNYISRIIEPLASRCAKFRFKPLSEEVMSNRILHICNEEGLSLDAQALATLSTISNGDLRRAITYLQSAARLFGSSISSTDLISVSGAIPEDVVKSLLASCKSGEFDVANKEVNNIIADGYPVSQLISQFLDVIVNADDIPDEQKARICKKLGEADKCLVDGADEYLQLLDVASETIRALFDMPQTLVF

Columns and labels:
Assay in all cases: split reporter; BiFC: fusions to YFP^N (1-155 aa) and YFP^C (156-239 aa) co-expressed transiently in Nicotiana benthamiana leaf epidermal cells; YFP seen by confocal microscopy
[1] = target: OsPCNA Δ1–136 (rice (Oryza sativa)) (UniProt P17070)
[2] = target: OsPCNA-YFP^C (rice (Oryza sativa)) (UniProt P17070)
[3] = target: T1, OsRFC3-YFP^N (rice (Oryza sativa)) (UniProt Q6YZ54)
T1 sequence: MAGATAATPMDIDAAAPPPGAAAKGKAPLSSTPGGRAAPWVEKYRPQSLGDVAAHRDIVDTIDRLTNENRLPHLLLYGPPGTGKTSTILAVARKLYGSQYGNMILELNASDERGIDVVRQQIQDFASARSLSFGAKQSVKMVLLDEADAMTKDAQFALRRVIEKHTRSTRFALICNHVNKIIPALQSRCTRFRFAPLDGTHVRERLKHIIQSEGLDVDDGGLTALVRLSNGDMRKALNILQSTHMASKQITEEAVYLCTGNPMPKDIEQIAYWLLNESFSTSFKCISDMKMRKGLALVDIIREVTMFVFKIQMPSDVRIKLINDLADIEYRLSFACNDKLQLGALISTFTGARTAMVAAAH

[4] = target: OsRFC2-YFP^N (rice (Oryza sativa)) (UniProt Q9FXM3)
[5] = target: T2, OsRFC5-YFP^N (rice (Oryza sativa)) (UniProt Q852K3)
T2 sequence: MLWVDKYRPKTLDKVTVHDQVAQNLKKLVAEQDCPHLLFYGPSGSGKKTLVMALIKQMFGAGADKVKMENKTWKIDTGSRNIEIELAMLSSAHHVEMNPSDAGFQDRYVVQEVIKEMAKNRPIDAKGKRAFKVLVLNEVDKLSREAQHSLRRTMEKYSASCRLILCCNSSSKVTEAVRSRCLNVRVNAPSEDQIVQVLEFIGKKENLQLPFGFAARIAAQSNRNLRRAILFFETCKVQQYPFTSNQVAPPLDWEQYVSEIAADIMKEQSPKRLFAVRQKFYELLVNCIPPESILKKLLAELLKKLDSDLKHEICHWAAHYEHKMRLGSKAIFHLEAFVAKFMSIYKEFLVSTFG

[6] = target: T3, OsRFC1-YFP^N (rice (Oryza sativa)) (UniProt Q2R2B4)
T3 sequence: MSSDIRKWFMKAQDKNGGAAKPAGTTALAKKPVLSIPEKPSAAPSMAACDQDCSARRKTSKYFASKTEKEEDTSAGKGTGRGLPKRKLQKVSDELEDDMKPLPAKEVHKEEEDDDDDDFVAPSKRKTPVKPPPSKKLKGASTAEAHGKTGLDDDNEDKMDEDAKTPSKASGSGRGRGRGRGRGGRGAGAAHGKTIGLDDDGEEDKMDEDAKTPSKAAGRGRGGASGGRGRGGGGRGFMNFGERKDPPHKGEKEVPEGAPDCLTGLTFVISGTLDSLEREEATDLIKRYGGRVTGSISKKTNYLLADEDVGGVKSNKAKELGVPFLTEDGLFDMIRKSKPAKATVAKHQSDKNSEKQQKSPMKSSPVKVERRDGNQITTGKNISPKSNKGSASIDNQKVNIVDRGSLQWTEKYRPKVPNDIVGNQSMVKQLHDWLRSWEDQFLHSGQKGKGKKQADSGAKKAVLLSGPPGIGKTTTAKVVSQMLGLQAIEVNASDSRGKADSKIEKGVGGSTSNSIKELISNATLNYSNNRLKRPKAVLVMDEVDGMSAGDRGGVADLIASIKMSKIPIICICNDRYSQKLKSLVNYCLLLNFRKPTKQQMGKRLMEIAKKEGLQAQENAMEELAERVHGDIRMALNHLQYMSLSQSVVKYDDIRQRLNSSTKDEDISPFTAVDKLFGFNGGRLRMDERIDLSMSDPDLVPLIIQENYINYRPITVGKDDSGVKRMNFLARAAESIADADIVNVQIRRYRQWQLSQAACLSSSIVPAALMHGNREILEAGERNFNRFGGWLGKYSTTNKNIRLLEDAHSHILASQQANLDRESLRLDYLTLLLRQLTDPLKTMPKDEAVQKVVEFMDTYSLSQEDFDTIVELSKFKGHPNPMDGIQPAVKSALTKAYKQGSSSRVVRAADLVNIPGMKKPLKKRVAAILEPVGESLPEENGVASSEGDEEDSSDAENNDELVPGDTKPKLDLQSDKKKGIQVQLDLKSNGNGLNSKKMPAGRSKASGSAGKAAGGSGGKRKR

[7] = target: T4, OsRFC4-YFP^N (rice (Oryza sativa)) (UniProt Q7XRX1)
T4 sequence: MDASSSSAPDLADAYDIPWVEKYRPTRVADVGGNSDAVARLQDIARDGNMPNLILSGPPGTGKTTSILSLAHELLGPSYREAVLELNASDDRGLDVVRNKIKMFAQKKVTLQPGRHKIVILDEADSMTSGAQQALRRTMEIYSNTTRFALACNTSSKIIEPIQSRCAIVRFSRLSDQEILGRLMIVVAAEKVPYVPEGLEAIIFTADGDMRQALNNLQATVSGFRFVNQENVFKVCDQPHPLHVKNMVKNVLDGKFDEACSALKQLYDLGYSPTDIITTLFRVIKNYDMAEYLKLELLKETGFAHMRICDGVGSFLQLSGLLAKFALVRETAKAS

[8] = target: OsPCNA Δ244–263 (rice (Oryza sativa)) (UniProt P17070)
[9] = target: OsPCNA Δ1–120 (rice (Oryza sativa)) (UniProt P17070)

- binding [1]: no binding
- binding [2]: no binding
- binding [3]: no binding
- binding [4]: no binding
- binding [5]: no binding
- binding [6]: no binding
- binding [7]: no binding
B1: OsPCNA Δ1–136 (domain or fragment, UniProt P17070 137-263)
chain: VRMPSSEFSRICKDLSSIGDTVIISVTKEGVKFSTAGDIGTANIVCRQNKTVDKPEDATIIEMQEPVSLTFALRYMNSFTKASPLSEQVTISLSSELPVVVEYKIAEMGYIRFYLAPKIEEDEEMKS

- binding [2]: binds
- binding [3]: binds
- binding [4]: no binding
- binding [5]: no binding
- binding [8]: no binding
- binding [6]: no binding
- binding [7]: binds
B2: OsPCNA Δ244–263 (domain or fragment, UniProt P17070 1-243)
chain: MLELRLVQGSLLKKVLEAIRELVTDANFDCSGTGFSLQAMDSSHVALVALLLRSEGFEHYRCDRNLSMGMNLNNMAKMLRCAGNDDIITIKADDGSDTVTFMFESPNQDKIADFEMKLMDIDSEHLGIPDSEYQAIVRMPSSEFSRICKDLSSIGDTVIISVTKEGVKFSTAGDIGTANIVCRQNKTVDKPEDATIIEMQEPVSLTFALRYMNSFTKASPLSEQVTISLSSELPVVVEYKIAE

- binding [2]: no binding
- binding [3]: binds
- binding [9]: no binding
- binding [6]: binds
- binding [7]: binds
B3: OsPCNA Δ1–120 (domain or fragment, UniProt P17070 121-263)
chain: IDSEHLGIPDSEYQAIVRMPSSEFSRICKDLSSIGDTVIISVTKEGVKFSTAGDIGTANIVCRQNKTVDKPEDATIIEMQEPVSLTFALRYMNSFTKASPLSEQVTISLSSELPVVVEYKIAEMGYIRFYLAPKIEEDEEMKS
